This is one part of the list. Values were computed here from the reads of four pooled replicates and scatter widely.

In this assay the target is T1, Pho4 (S. cerevisiae) (UniProt P07270).
T1 sequence: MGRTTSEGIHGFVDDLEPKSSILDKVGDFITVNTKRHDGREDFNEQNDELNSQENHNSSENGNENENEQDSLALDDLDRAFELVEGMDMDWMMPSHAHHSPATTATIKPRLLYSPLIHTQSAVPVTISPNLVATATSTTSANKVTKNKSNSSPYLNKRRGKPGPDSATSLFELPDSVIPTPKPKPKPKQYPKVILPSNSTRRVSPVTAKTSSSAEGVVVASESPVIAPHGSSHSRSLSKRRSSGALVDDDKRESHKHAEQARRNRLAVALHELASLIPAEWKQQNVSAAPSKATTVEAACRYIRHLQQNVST
The experiment in a line: relative binding free energy (BET-seq); higher = weaker binding. Particulars: reference: library average.
In the case of GTTCTCACGTGGGATT, the “relative binding free energy” value was 0.18 kcal/mol.
With TTGCGCACGTGGGGAG the figure was -0.19 kcal/mol.
With TTTGACACGTGTGTGT, the “relative binding free energy” value is 0.09 kcal/mol.
On to AGCGGCACGTGGTAGG, for which the “relative binding free energy” value is -0.07 kcal/mol.
Then TTTGGCACGTGTCCAT, with -0.1 kcal/mol.
With GATCACACGTGGAGGG the figure was 0.13 kcal/mol.
Consider GTTGTCACGTGTAATA, for which the “relative binding free energy” value was 0.13 kcal/mol.
On to TTGGGCACGTGGTAAG, for which the “relative binding free energy” value is -0.1 kcal/mol.
With GTGCGCACGTGTGAGT the figure was -0.04 kcal/mol; with CTGGTCACGTGGGAGA, -0.08 kcal/mol.
Turning to GGTTACACGTGAGGAG, the “relative binding free energy” value came out at 0.19 kcal/mol.
With TGTGGCACGTGAGGTC the figure was 0.2 kcal/mol.
On to TGAAGCACGTGGGTGA, for which the “relative binding free energy” value was -0.23 kcal/mol.
Turning to CGTTTCACGTGTTACG, the “relative binding free energy” value stood at 0.17 kcal/mol.
GGTCTCACGTGGGCAT: the “relative binding free energy” value was 0.21 kcal/mol.
Then GGGCGCACGTGTTAGA, with 0.02 kcal/mol; and TGGGTCACGTGAATCA, with 0.45 kcal/mol.
Consider TGTGGCACGTGAGAGC, for which the “relative binding free energy” value came out at 0.2 kcal/mol.
With TTGTTCACGTGGAACG the figure was 0.28 kcal/mol; with GCATGCACGTGTTTTG, 0.02 kcal/mol; with GGGGGCACGTGCTCTG, -0.18 kcal/mol.
Then AGCAGCACGTGTAGTT, with 0.03 kcal/mol; and TCTGACACGTGGGGGC, with -0.1 kcal/mol.
Then AGAGGCACGTGAATTG, with 0.12 kcal/mol; and TGCAGCACGTGTGTGA, with -0.03 kcal/mol.
On to TGTGTCACGTGTCCGG, for which the “relative binding free energy” value came out at 0.1 kcal/mol.
For the sequence TGGCGCACGTGCGAGG, the “relative binding free energy” value is -0.08 kcal/mol.
Then AATTGCACGTGCTTTG, with -0.07 kcal/mol; and GGTGGCACGTGACGTT, with -0.01 kcal/mol.
With CGGTACACGTGATGTT the figure was 0.19 kcal/mol; with GTGGGCACGTGAGCTA, 0.07 kcal/mol; with TTGTTCACGTGGCGGA, 0.15 kcal/mol.
With TGGTACACGTGGGGCA, the “relative binding free energy” value amounted to 0.02 kcal/mol.
With GGGCGCACGTGTCGGG the figure was -0.03 kcal/mol; with TTCCGCACGTGGTGTA, -0.21 kcal/mol; with TGGTGCACGTGTTTCC, 0.14 kcal/mol.
Then GGAGTCACGTGATGTA, with 0.31 kcal/mol; and TGTAGCACGTGATCTT, with 0.01 kcal/mol.
For AATGGCACGTGGTTGT, the “relative binding free energy” value is -0.19 kcal/mol.
Then CTGAGCACGTGGTAGT, with -0.25 kcal/mol; and TGTAGCACGTGTGTTC, with -0.04 kcal/mol; and AGAGGCACGTGAGGTT, with 0.12 kcal/mol.
In the case of CGGAGCACGTGCTGGT, the “relative binding free energy” value is -0.05 kcal/mol.
In the case of TTAGGCACGTGCGGGG, the “relative binding free energy” value was -0.19 kcal/mol.
With AGGAACACGTGTGTGT the figure was 0.15 kcal/mol; with TTCTACACGTGAGGCG, 0.36 kcal/mol.
With GGATTCACGTGGTTTT the figure was 0.22 kcal/mol.
GTAGACACGTGGTGTG: the “relative binding free energy” value is -0.05 kcal/mol.
Consider AAAAGCACGTGGGGTT, for which the “relative binding free energy” value is -0.15 kcal/mol.
On to TACGGCACGTGATGGG, for which the “relative binding free energy” value worked out at 0.16 kcal/mol.
With GACTTCACGTGGTGGG the figure was 0.36 kcal/mol; with GTGTACACGTGCGTGT, -0.02 kcal/mol; with GGGATCACGTGTGAGG, 0.25 kcal/mol.
Then GCTGGCACGTGTCAGT, with 0.12 kcal/mol; and TTTCTCACGTGGGAGT, with 0.19 kcal/mol.
For GAGGGCACGTGCGGTG, the “relative binding free energy” value is -0.12 kcal/mol.
Then ACATACACGTGTGTTT, with 0.07 kcal/mol.
GTGATCACGTGTGGGA: the “relative binding free energy” value was found to be 0.06 kcal/mol.
Then GCATTCACGTGGGGCG, with 0.14 kcal/mol; and TACTTCACGTGTGTGG, with 0.36 kcal/mol; and ATGATCACGTGTAATT, with 0.26 kcal/mol.
Then TTGTACACGTGAGGTG, with 0.34 kcal/mol; and TATGGCACGTGTGGCA, with -0.08 kcal/mol; and GGTTACACGTGGGCGG, with 0.02 kcal/mol.
TCAGGCACGTGGGGCG: the “relative binding free energy” value was -0.38 kcal/mol.
Then TTTTTCACGTGGGCAT, with 0.21 kcal/mol.
With AGCCGCACGTGATGGG the figure was 0.06 kcal/mol; with GTACACACGTGGGGGG, -0.14 kcal/mol; with GGATACACGTGATGAG, 0.32 kcal/mol.
With AATTTCACGTGAAGTG the figure was 0.34 kcal/mol; with CGGGACACGTGTAGGT, 0.06 kcal/mol.
Take TGGTTCACGTGGTCCG: the “relative binding free energy” value is 0.22 kcal/mol.
As to AGTAGCACGTGGAACT, the “relative binding free energy” value came to 0.24 kcal/mol.
Then TTGCGCACGTGGAGCG, with -0.12 kcal/mol.
Then CGCATCACGTGGGGTT, with 0.06 kcal/mol.
With TTAGGCACGTGGTATA the figure was -0.07 kcal/mol; with CGAGACACGTGGGTTA, -0.03 kcal/mol; with TGCGGCACGTGAATTT, 0.38 kcal/mol.
Consider AAGGGCACGTGGAACG, for which the “relative binding free energy” value is -0.11 kcal/mol.
Turning to TTTATCACGTGCTTAA, the “relative binding free energy” value turned out to be 0.14 kcal/mol.
For the sequence GGGATCACGTGTTAGT, the “relative binding free energy” value turned out to be 0.18 kcal/mol.
Turning to GATGGCACGTGTATCG, the “relative binding free energy” value was -0.01 kcal/mol.
As to GTTTTCACGTGGAGCA, the “relative binding free energy” value turned out to be 0.25 kcal/mol.
Regarding TGAATCACGTGGTCGA, the “relative binding free energy” value was determined as 0.09 kcal/mol.
With AGTGGCACGTGCGTTG the figure was -0.24 kcal/mol; with TGTAGCACGTGGAGAA, 0.06 kcal/mol.
Then CAGGACACGTGATGGG, with 0.12 kcal/mol.
ATTTTCACGTGCTCTT: the “relative binding free energy” value worked out at 0.35 kcal/mol.
Consider GCGGACACGTGGTTGG, for which the “relative binding free energy” value amounted to 0.03 kcal/mol.
For TATAACACGTGGGTAT, the “relative binding free energy” value was -0.26 kcal/mol.
Consider ATTGCCACGTGTTATT, for which the “relative binding free energy” value was -0.15 kcal/mol.
With TAGAGCACGTGGCTTG the figure was -0.2 kcal/mol.
Turning to TCAGTCACGTGATGGT, the “relative binding free energy” value amounted to 0.27 kcal/mol.
With TGTAACACGTGATGCT the figure was 0.14 kcal/mol; with AGGGACACGTGGGGCA, -0.17 kcal/mol.
Then CGCGACACGTGGGGTG, with -0.28 kcal/mol; and TAGTGCACGTGGGGCT, with -0.19 kcal/mol.
In the case of AGGTGCACGTGGAGGA, the “relative binding free energy” value is 0.02 kcal/mol.
As to GTAACCACGTGGGTGT, the “relative binding free energy” value was -0.01 kcal/mol.
With GATGGCACGTGGTTTA, the “relative binding free energy” value was -0.03 kcal/mol.
In the case of TTGATCACGTGTTAGA, the “relative binding free energy” value amounted to 0.22 kcal/mol.
Then TGCGCCACGTGTGTTT, with 0.03 kcal/mol.
As to TGTTTCACGTGATGGA, the “relative binding free energy” value was 0.24 kcal/mol.
Turning to TGTTTCACGTGTTAAG, the “relative binding free energy” value is 0.25 kcal/mol.
For the sequence TTATGCACGTGGCGGT, the “relative binding free energy” value is -0.1 kcal/mol.
For the sequence CTTATCACGTGGGTTT, the “relative binding free energy” value is -0.07 kcal/mol.
Then TGTGTCACGTGGCAGG, with 0.04 kcal/mol; and CTTGTCACGTGGGAGT, with -0.16 kcal/mol; and ATACGCACGTGTAGTG, with -0.08 kcal/mol.
Take GTTTGCACGTGATTTG: the “relative binding free energy” value is 0.16 kcal/mol.
With TCGTGCACGTGGCCGT the figure was -0.13 kcal/mol.
Then CGCGTCACGTGTGCGG, with 0.06 kcal/mol.
On to AAACTCACGTGGGTGT, for which the “relative binding free energy” value worked out at 0.09 kcal/mol.
Regarding TAGGGCACGTGAGAGG, the “relative binding free energy” value is -0.01 kcal/mol.
Turning to TTCGTCACGTGATGAG, the “relative binding free energy” value was 0.18 kcal/mol.

The values above are taken from the BET-seq Pho4 binding data (Le et al. 2018).
